Measurements from patent US7101894B2 (priority 2001, dated 2006).

Target: hUS28 (Human cytomegalovirus, UniProt P69332)
Settings: read-out: hUS28 IC50; inhibition of 125I-fractalkine binding; hUS28 transfected murine cells; 2–4 hours at 4° C.
Method: Radioligand binding assays were carried our in the following manner. The target cells typically used in these assays were either Rhesus dermal fibroblasts which had been infected with Rhesus CMV for 2–4 days, or hUS28 transfected murine cells. Lots of cells verified for fractalkine binding were frozen until use. For the assay, cells were thawed, washed, and resuspended in assay buffer(20 mM HEPES pH 7.1, 140 mM NaCl, 1 mM CaCl2, 5 mM MgCl2, and with 0.2% bovine serum albumin) to a concentration of from 4×10^5 to 5×10^6 cells/ml. Compounds were prepared as 10×solutions in 20% DMSO, and 0.02 ml was placed in assay plates. Next 0.09 ml of cells was added to the assay plates containing the compounds. Lastly 0.09 ml of ^125I-fractalkine diluted in assay buffer (final concentration ˜50 pM, with 20,000–50,000 cpm per well) was added, the plates sealed and incubated for 2–4 hours at 4° C. on a shaker platform. The assay plates were harvested using Packard GF/B filter plates, pre-soaked in 0.3% polyethyleneimmine solution, on a Packard vacuum cell harvester. Scintillation fluid was added to all wells, the plates were sealed and counted in a Top Count scintillation counter. Control wells containing either diluent only (for total counts) or excess unlabeled fractalkine (1 μg/ml, for non-specific binding) were used to calculate the percent of total inhibition. […]

Sequence of UniProt P69332 (P69332 whole entry): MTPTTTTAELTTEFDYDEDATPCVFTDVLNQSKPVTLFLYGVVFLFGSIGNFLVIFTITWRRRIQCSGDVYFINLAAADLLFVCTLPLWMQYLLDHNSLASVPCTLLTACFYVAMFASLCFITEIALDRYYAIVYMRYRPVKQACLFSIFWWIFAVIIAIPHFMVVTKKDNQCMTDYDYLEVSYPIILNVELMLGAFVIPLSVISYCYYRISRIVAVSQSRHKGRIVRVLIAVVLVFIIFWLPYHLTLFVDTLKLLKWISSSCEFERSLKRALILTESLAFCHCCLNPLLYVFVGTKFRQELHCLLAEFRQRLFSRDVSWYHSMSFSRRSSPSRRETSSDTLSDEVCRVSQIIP

CC[C@H]1C[N@]2CC[C@H]1C[C@H]2[C@H](OC(=O)Cc1cc(C)no1)c1ccnc2ccccc12 [Compound 164]
IC50: 1 to 10 µM
